According to the supplement of paper PMC11417369:
Some of the results follow.

Tested on: PfHDP1 homeodomain (GST-tagged)
Assay: gcPBM binding intensity (ln(normalized median fluorescence intensity)); higher = stronger DNA binding
Procedure, shortened: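 After 1 h on an Agilent 4 × 180k array of primer-extended double-stranded 36-bp intergenic genomic probes and negative controls, bound GST-tagged P. falciparum DNA-binding domains were detected with Alexa488 anti-GST antibody and scanned at 488 nm. The domains had been expressed in E. coli, and binding took place in 1× PBS with 1% milk, 0.2 mg/ml BSA, 0.5% salmon testes DNA and 0.03% Triton X-100. Binding intensity is the highest Masliner-normalised natural-log median intensity across replicate spots of either probe orientation.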

Row | Sequence | gcPBM binding intensity (ln)
1 | AAAAATATGAAGACACAATATAGAAATAAAAATATA [XGTACX_negctrl_site244] | 6.5
2 | TTTTTTTTTTTCTTTGCACACAGATAACTTGAAATT [CACACA_site2184] | 8.45
3 | AATTTAATTATGGTAACACACAATAAAAAAAAATCT [CACACA_site568] | 6.53
4 | ATATTTTATTTTCCATGTACACAAAAAAAAAAAAAA [XGTACX_site8327] | 6.52
5 | AAGAAAATAAAGGATATGAAAAATAAAAAAAAGGAG [TGCATGCA_negctrl_site265] | 6.98
6 | AGGTTAAAAATAAATACACACATTTTATGGGTGTAT [CACACA_site4702] | 6.1
7 | TATAAAAATAATATTACACACATGTAAAATGCCCGT [CACACA_site7522] | 6.38
8 | TGAAAATAATTATAGGTGCATAAACATACGGATCTT | 8.97
9 | TTTTTTTTGTATTTTTCACACACTCTCTATCTCTCT [CACACA_site8655] | 6.66
10 | ATATATTAATAATAAATTAAAAGGAGTAACATTTTC [CACACA_negctrl_site320] | 6.35
11 | CACATTATGTATCATACACACAAATAAATATATAAT [CACACA_site4505] | 6.7
12 | ATATTATTAATATATTGTACTTTTTTTTTTTTATTT [XGTACX_site496] | 6.32
13 | ATATGTATTTAATTCACACAAAAATATGTTCATGAA [CACACA_site5223] | 6.41
14 | TTATATAGATGGAATAGTACAGTATATATATATATA [XGTACX_site8755] | 9.18
15 | ATTTCTCAATCGTAATGTACAAAAAAAAGGAAAAAA [XGTACX_site1193] | 6.15
16 | CCTTTATATTATAAAAGTACATAATATTTTATAAGT [XGTACX_site1629] | 6.15
17 | AGCTCTATATTTTACACATGCGATTTGGATATATAT [TGCATGCA_site105] | 6.6
18 | TAAATATATATCATCACACACACATACATAAATATA [CACACA_site183] | 6.93
19 | ATATTACAACGTAACGAATATTTCATAAATTCTTAA [CACACA_negctrl_site770] | 5.96
20 | AAAAAAAAAAAACACACACACACACTAATATATAAA [CACACA_site8302] | 6.7
21 | TAAAATAATTCGTAACGTACATATGTAATATAATAT [XGTACX_site6126] | 7.16
22 | TAATATATAAGAAACAAAAAAAAATAAAAATATATA [TGCATGCA_negctrl_site153] | 6.36

Row | Sequence | gcPBM binding intensity (ln)
23 | CGCATACACGGACACACACACACATATATATATATA [CACACA_site4520] | 9.19
24 | GGTATAAAGAAATTTTGTACATATTTCTCCCTTTAA [XGTACX_site1874] | 6.39
25 | ATAAAATCAACAAATCAGGATGTCACGTAAATATCA [CACACA_negctrl_site1009] | 6.57
26 | AAATATTGTTTTTTATGTACTTATTTTTATTTATTT [XGTACX_site3481] | 6.68
27 | ATGAAAAAGTGCTGGATTCTAAAGAAAAAAAAAAAA [CACACA_negctrl_site962] | 5.94
28 | GAAAAACAAATATATTAACACACAAACATATAAACA [CACACA_site9315] | 6.78
29 | GTTATATGAACTTATATACACACCATTTTTGTAAAT [CACACA_site695] | 6.69
30 | AAATCATATTCTTATTTTATTTTTTTTATTTTTTAT [XGTACX_negctrl_site166] | 6.19
31 | TGTAGATATTTTTGGGGTACTTTATAAAGAACTAGT [XGTACX_site5635] | 6.7
32 | TTACATATATTGGGGTGTACATATATTTTCCTTCAC [XGTACX_site6224] | 7.35
33 | AAAAAAAAAAAAAAAAGTACACATAATTGTATATGT [XGTACX_site6339] | 6.58
34 | AAAAAAAAGAAAAAAACACACAATGGAAAAAATGTA [CACACA_site3675] | 6.51
35 | TCAACTTGATTTATATGTACACATATAAGTAATTAT [XGTACX_site1798] | 6.47
36 | ACGTTAGGCTTATTTGCACACTTGTATTAAAATTTT [CACACA_site4854] | 10.1
37 | AAAAATATGCTTCCATGTACTTAAAAAAAAAATTTA [XGTACX_site3617] | 6.21
38 | TATACAAACTATGATGCACACATATATATATGTATA [CACACA_site8327] | 8.97
39 | AAAAAAAATTTTCTTCTGTTGTATTTTTTATACGTT [GTGCAC_negctrl_site477] | 6.45
40 | GTTTATTTTTTCATTTGTACACATAAATAAATATAT [XGTACX_site7752] | 6.92
41 | TTAATTATATTATGCACACACAATTGGAAAAAAAAT [CACACA_site1958] | 10.2
42 | GGTATATATTCTATCACACATATTTCCATGAAAATA [CACACA_site4728] | 6.63
43 | TATTTAGAAATAAATACACACATACATTTTTGTATA [CACACA_site4557] | 6.33
44 | TTATACGAAGTACGTACACACACTTATATGTTACTA [CACACA_site4019] | 6.71
